The values below come from ChEMBL document CHEMBL4888484, “Replenishing the malaria drug discovery pipeline: Screening and hit evaluation of the MMV Hit Generation Library 1 (HGL1) against asexual blood stage Plasmodium falciparum ,using a nano luciferase reporter read-out” (2022).

About 540 (0.36%) of roughly 150,000 compounds showed an effect of 50% or more. The list shows a part of the results.

This assay concerns Plasmodium falciparum. In words: Primary screen in NF54 nanoGlo assay, in single point, at 2uM, 72h; a lower Z score goes with more inhibition. The format is functional, Erythrocyte. The following applies: timepoint 72 hour.
Consider `CC(=O)N[C@@H](CCC(N)=O)c1nc(CC(C)C)n[nH]1`, for which the “% Inhibition” value is -18% and the Z score worked out at 2.27.
The like results for `CC(C)NC(=O)c1[nH]cnc1C(=O)NCc1ccccc1F` were, in that order, 18% and -2.26.
The like results for `CC1CN(Cc2cc3cc(Cl)cnc3o2)C1` were, in that order, -7% and 0.96.
On the same counts, the results for `CCOC(=O)c1sc([C@H](C)NC(=O)C#Cc2ccccc2)nc1C` are 25% and -2.87.
In the case of `COc1ccc(C(=O)N[C@@H](c2ccc(C)cc2)c2cccnc2)cc1OC`, the “% Inhibition” value was -6% and the Z score was determined as 0.73.
On the same counts, the results for `CCOC(=O)N1CCN(C(=O)c2ccc3c(=O)n4c(nc3c2)CCCCCC4)CC1` are -2% and 0.3.
The like results for `CCc1ncc(C(=O)Nc2c(C)c(CC)nn2-c2ccccc2)cn1` were, in that order, -14% and 1.97.
As for `Cc1ccccc1N1C(=O)C2C3C=CC(C3=C3CCCCC3)C2C1=O` (centres undefined), the “% Inhibition” value was determined as 9% and the Z score was -1.3.
With `COc1ccccc1Cn1ccc2c(cnc3c(-c4ccc(Cl)cc4)cnn32)c1=O`, the “% Inhibition” value is -17% and the Z score is 2.48.
The like results for `O=C(c1cccc(-c2ccc3[nH]c(CO)nc3c2)c1)N1CC[C@@](O)(CO)C1` were, in that order, -17% and 2.35.
On the same counts, the results for `FC(F)(F)c1cccnc1N1CCC[C@H](C2CC2)C1` are -12% and 1.5.
As for `Cc1ccc(-c2ccc(C#N)s2)cc1NCc1nc(C2CC2)no1`, the “% Inhibition” value is 25% and the Z score was -2.96.
On the same counts, the results for `COc1ccc(Cn2c(=O)c3c(ncn3Cc3ccc(Cl)c(Cl)c3)n(-c3ccc(F)cc3)c2=O)cc1` are 1% and -0.26.
On the same counts, the results for `Cc1nc2c(c(N3CCC(c4nc(-c5ccccc5)no4)CC3)n1)CNC2` are -3% and 0.5.
On the same counts, the results for `CN(C[C@H](O)c1ccc(F)cc1)C(=O)c1cccc2[nH]ccc12` are -4% and 0.43.
Take `Cc1nc2ccccc2n1[C@H]1CCN(S(=O)(=O)c2ccc(F)c(-c3nnn[nH]3)c2)C1`: the “% Inhibition” value was -4% and the Z score is recorded as 0.5.
On the same counts, the results for `CCOc1ccc(NC(=O)c2nn3c(C)cc(C)nc3c2-c2ccc(C)c(S(=O)(=O)N3CCOCC3)c2)cc1` are -6% and 0.56.
The like results for `O=C(NC1CCOC2(CCS(=O)(=O)C2)C1)NC1CCCc2occc21` (centres undefined) were, in that order, -6% and 0.78.
The like results for `O=C(CN1C[C@H]2CC[C@@H](C1)[C@H]2O)Nc1ccc(F)cc1` were, in that order, -6% and 0.81.
For `C[C@H](NC(=O)c1ccccc1N1CCCC1)c1ccc2c(c1)OCCO2`, the “% Inhibition” value is listed as -10% and the Z score was found to be 1.99.
The like results for `Cc1nc(C)n(C[C@H]2CCCCN2Cc2ccc3c(c2)OCCO3)n1` were, in that order, -15% and 1.54.
The like results for `CN(C)CCn1ccnc1C1CCN(C(=O)NCc2cccc(F)c2)CC1` were, in that order, 5% and -0.83.
On the same counts, the results for `C[C@]1(C(=O)NCc2nsc3ccccc23)CCC(=O)NC1` are -17% and 2.03.
As for `Cc1nn(CCC(=O)n2nnc3ccccc32)c(C)c1Cl`, the “% Inhibition” value is reported as -30% and the Z score is recorded as 3.52.
As to `O=C(NCCc1nnc2ccccn12)NCC1CCCCC1`, the “% Inhibition” value is on record as -10% and the Z score is recorded as 1.88.
`O=c1c2c(ncn1Cc1ccccc1)c1ccccc1n2Cc1c(F)cccc1Cl`: the “% Inhibition” value is listed as -7% and the Z score worked out at 1.11.
The like results for `C=C(C)CN(CC)C(=O)Nc1cnn([C@@H](C)CC)c1C` were, in that order, -5% and 1.05.
On the same counts, the results for `N#Cc1c(-c2ccccc2)cc(-c2ccccc2)nc1N1CCCCC1` are -6% and 0.85.
In the case of `Cc1ccc(F)c(S(=O)(=O)N2CCC(=O)Nc3cnccc32)c1`, the “% Inhibition” value is -6% and the Z score is 0.91.
The like results for `CCN1C(=O)[C@H]2[C@@H](C1=O)[C@@](CO)(C(=O)OC)N[C@H]2c1cccc2c1OC(C)(C)C2` were, in that order, 0% and -0.05.
On the same counts, the results for `C[C@@]1(C(F)(F)F)CN(C(=O)c2cnn3ccc(N)cc23)CCO1` are -4% and 0.54.
The like results for `c1cc(-c2ccn(Cc3ccncc3)n2)cc(-c2ncnc3sccc23)c1` were, in that order, -19% and 1.78.
For `Cc1noc(C)c1S(=O)(=O)NC[C@@](O)(c1cccs1)C1CC1`, the “% Inhibition” value was -4% and the Z score is 0.62.
As for `OC1=Nc2cccc3c2c(cn3Cc2ccccc2)[C@@H](c2ccc(O)cc2)C1`, the “% Inhibition” value is given as -21% and the Z score came out at 3.22.
Regarding `Cc1csc(CN(C)Cc2cc3c([nH]c2=O)CCCC3)n1`, the “% Inhibition” value is given as -11% and the Z score stood at 1.73.
On the same counts, the results for `NC(=O)[C@H]1CCCN(C(=O)Cc2ccc3c(c2)OCO3)C1` are 2% and -0.21.
On the same counts, the results for `COCC(=O)NCC#CCOc1ccccc1C(N)=O` are -14% and 1.83.
For `COc1ccccc1-c1cc(CN(Cc2ccc3c(c2)OCO3)C(=O)c2ccco2)no1`, the “% Inhibition” value is on record as -10% and the Z score worked out at 2.07.
For `CC(C)[C@H](CNCc1ccsc1)c1ccnn1C`, the “% Inhibition” value is on record as -13% and the Z score turned out to be 1.69.
Turning to `CCOC(=O)c1cn([C@H]2COC[C@@H]2OCC)cc(Oc2ccccc2)c1=O`, the “% Inhibition” value amounted to 0% and the Z score is given as 0.06.
The like results for `O=C(CCCNc1ncccn1)NCCn1ccc2cc(Br)ccc21` were, in that order, -11% and 1.53.
In the case of `Cc1noc(C)c1CCC(=O)Nc1ccc(OC[C@H]2CCCCO2)cc1`, the “% Inhibition” value is -12% and the Z score is on record as 2.02.

The term % Inhibition denotes the relative decrease from the control value, in per cent.
